Inconclusive means that the source gave no clear call. Such entries were picked first, then a sample of the others. Where the call is inconclusive, the potency comes from a doubtful curve fit. Activity calls are given as the source filed them. Calls follow the shape of the dose curve; as a rule, active = well fitted inhibition curve with a large enough effect; inconclusive = small, poorly fitted or top-dose-only effect; inactive = no such curve, though single readings can be large or run the other way.
Assay: Primary qHTS for inhibitors of nuclear receptor binding SET domain protein 2 (NSD2) in an RCH-ACV wild type WT cells (2C) (AID 1645877); also: nearly all actives have a fitted effect of over 70% in size
Conditions: RCH-ACV (leukaemia line) NSD2 WT (2C) viability, CellTiter-Glo, 72 h; series mostly up to 44.9 µM
Potency is read from the fitted curve at half-maximal effect; tags tell the direction and shape of the fitted curve.

Structure (SMILES) | Potency
O=C(N[C@H]1CN2CCC1CC2)c1ccc(Cl)cc1 | inactive
CN[C@@H]1Cc2cccc3[nH]c(=O)n(c23)C1 | inactive
CC[C@H]1CN2CC[C@H]1C[C@H]2[C@H](O)c1ccnc2ccc(OC)cc12 | inconclusive: 16 µM [inhibitor, single point]
Cc1ccc(-n2nccn2)c(C(=O)N2CCN(c3nc4cc(Cl)ccc4o3)CCC2C)c1 (centres undefined) | inconclusive: 10.3 µM [inhibitor, partial curve]
C[C@]12CC[C@H](O[C@@H]3O[C@H](CO)[C@@H](O)[C@H](O)[C@H]3O[C@@H]3O[C@H](CO)[C@@H](O)[C@H](O)[C@H]3O)CC1=CC[C@@H]1[C@@H]2CC[C@]2(C)[C@@H](C3=CC(=O)OC3)CC[C@]12O | active: 4.3 µM
C[C@]12CC[C@H]3[C@@H](CCC4=CC(=O)CC[C@@H]43)[C@@H]1CC[C@@H]2OC(=O)CCc1ccco1 | inconclusive: 21.1 µM [inhibitor, single point]
CCN(Cc1ccc(Cl)nc1)/C(=C/[N+](=O)[O-])NC | inactive
CN1C(=O)CN=C(c2ccccc2Cl)c2cc(Cl)ccc21 | inactive
ClC1=C(Cl)C2(Cl)C(CBr)CC1(Cl)C2(Cl)Cl (centres undefined) | inactive
CCOC(=O)C1(c2ccccc2)CCN(CCC(C#N)(c2ccccc2)c2ccccc2)CC1 | active: 5.96 µM
CC[N+]1(CC)CCC(OC(=O)C(O)(c2ccccc2)c2ccccc2)C1 (centres undefined) | inactive
CCN(CC)CCN1C(=O)CN=C(c2ccccc2F)c2cc(Cl)ccc21 | inconclusive: 29.9 µM [inhibitor, partial curve, poor fit]
C[C@]12CC[C@H]3[C@@H](CCC4=CC(=O)CC[C@@]43C)[C@H]1CC[C@H]2OC(=O)CCC1CCCC1 | inactive
CCN[C@@H](C)Cc1cccc(C(F)(F)F)c1 | inactive
CC[C@@H](C)[C@H]1C(=O)O[C@H](C(C)C)C(=O)N(C)[C@@H]([C@@H](C)CC)C(=O)O[C@H](C(C)C)C(=O)N(C)[C@@H]([C@H](C)CC)C(=O)O[C@H](C(C)C)C(=O)N1C | active: 1.71 µM
Nc1ccc([As](=O)(O)O)cc1 | inactive
C[C@H]1C/C=C/[C@H]2[C@@H]3O[C@]3(C)[C@@H](C)[C@H]3[C@H](Cc4ccccc4)NC(=O)[C@]32OC(=O)O/C=C/[C@@](C)(O)C1=O | active: 0.502 µM
CCC(=O)O[C@@H]1C=C2CCC3C(CCC4(C)C3CC[C@@H]4OC(=O)CC)C2CC1 (some centres undefined) | inconclusive: 29.9 µM [inhibitor, partial curve, poor fit]
CCN1CCCC1CNC(=O)C(O)(c1ccccc1)c1ccccc1 (centres undefined) | inactive
C=C(C)C(=O)O[C@H]1[C@@H]2[C@H](C)C(=O)O[C@@H]2C[C@@H](C)[C@@H]2C=CC(=O)[C@]21C | active: 1.79 µM

Structure (SMILES) | Potency
C=CCN1CCC2(C)c3cc(O)ccc3C[C@H]1[C@H]2C | inactive
CN(C(=O)CN1C(=O)COc2cc(Cl)c(Cl)cc21)[C@@H](CN1CCCC1)c1ccc(-c2cccc(C(N)=O)c2)cc1 | active: 7.28 µM
COC1CC(O[C@H]2CC[C@@]3(C)C(CCC4C3CC[C@]3(C)[C@@H](C5=CC(=O)OC5)CC[C@]43O)C2)OC(C)C1O (some centres undefined) | inconclusive: 0.0447 µM [inhibitor, full curve, poor fit]
CNC(=O)c1cc(C#N)cc(C)c1NC(=O)c1cc(Br)nn1-c1ncccc1Cl | inconclusive: 29 µM [inhibitor, single point]
C=C(C)[C@@]12O[C@@H]1[C@@]1(C)C(=C[C@H]2O)CC[C@@H](O)[C@@H]1C | inactive
CCCCCCCCc1ccc(O)cc1 | inconclusive: 7.77 µM [inhibitor, full curve]
CNCC(=O)c1ccc(O)c(O)c1 | inconclusive: 26.6 µM [inhibitor, single point]
COc1ccc(CN2CCNCC2)c(OC)c1OC | inconclusive: 23.7 µM [inhibitor, single point]
COc1cc(C[C@@H](C)N)c(OC)cc1C | inconclusive: 51.8 µM [inhibitor, single point]
CCCOC(=O)c1cncn1C(C)c1ccccc1 (centres undefined) | inactive
C#CCN(C)[C@H](C)Cc1ccccc1 | inactive
Clc1cccc(N2CCNCC2)c1 | inactive
CC1=CC(=O)[C@@H](O)[C@@]2(C)C1C[C@H]1OC(=O)[C@H](O)[C@@]3(O)[C@@H](C)[C@@H](O)[C@H](O)C2[C@@]13C (some centres undefined) | active: 1.01 µM
CCN1C[C@]2(COC)CC[C@H](O)[C@@]34C5C[C@@H]6[C@@H](OC)C[C@@](OC(C)=O)(C5[C@@H]6OC(C)=O)[C@H]([C@H](OC)C23)[C@@H]14 (some centres undefined) | inactive
O=[N+]([O-])c1cc([As](=O)(O)O)ccc1O | inconclusive: 3.35 µM [inhibitor, single point]
CC1=CC(=O)[C@@H](O)[C@]2(C)C3[C@@H](O)[C@@H]4OC(=O)[C@@H]([C@H]4C)[C@]3(C)C(=O)C[C@@H]12 (some centres undefined) | active: 2.26 µM
COC1=C[C@@H]2[C@@H]3Cc4ccc(OC)c(O)c4[C@]2(CCN3C)CC1=O | inactive
C[C@]12CC[C@H](O)C[C@H]1CC[C@@H]1[C@@H]2[C@H](O)C[C@]2(C)[C@@H](c3ccc(=O)oc3)CC[C@]12O | active: 0.0459 µM
CC(N[C@H]1C[C@H]1c1ccccc1)c1ccc2c(c1)OCCO2 (some centres undefined) | inactive

Reference: PubChem BioAssay (NCATS)
